Data as given in ChEMBL document CHEMBL4888484, “Replenishing the malaria drug discovery pipeline: Screening and hit evaluation of the MMV Hit Generation Library 1 (HGL1) against asexual blood stage Plasmodium falciparum ,using a nano luciferase reporter read-out” (2022).
Among all 150,000 compounds or so, about 540 (0.36%) showed an effect of 50% or more. Some of the results follow.

Test system: Plasmodium falciparum
Assay: Primary screen in NF54 nanoGlo assay, in single point, at 2uM, 72h; a lower Z score goes with more inhibition
Type: functional, Erythrocyte
Details: timepoint 72 hour

Going from `Cc1cnc(C(=O)Nc2ccncc2)cn1` to `Cc1noc(C)c1C(=O)NCc1cncc(-c2ccsc2)c1`, the “% Inhibition” value falls from -8% to -9%.

Compared with `O=C(Cn1cccc1-c1nc(-c2ccc3c(c2)OCO3)no1)Nc1ccc(F)c(F)c1`, `CCOc1nc(-c2cccc(F)c2)n(-c2ccc(NC(=O)Cc3ccccc3)cc2)n1` is higher in “% Inhibition” value: -20% for the first, -10% for the second.

Going from `COCCN1[C@H](C)CN(CCc2ccc(F)c(F)c2)C[C@@H]1C` to `CCOc1cc(CCCNC(=O)c2cc[nH]n2)ccc1OC`, the “% Inhibition” value rises from -5% to -3%.

Going from `CC1CCCC(NC(=O)C2N(CCN3CCOCC3)C(=O)[C@H]3C(C(=O)Nc4cc(Cl)cc(Cl)c4)[C@H]4C=C[C@@]23O4)C1C` (stereo partly drawn) to `COc1ccc(C(=O)N2CCC(F)(C(=O)N3CCOCC3)CC2)cc1`, the “% Inhibition” value falls from 0% to -7%.

Going from `Cc1ncnc(N2CCC(CNC(=O)c3ccco3)CC2)c1C` to `Cc1ccccc1N1CCC(NCc2cncn2C2CC2)CC1`, the “% Inhibition” value rises from -11% to -10%.

First: Oc1cccc(CN(C[C@H](O)C(F)(F)F)[C@H]2CC[C@H](O)CC2)c1
Second: CCN(C[C@H](O)c1cccc(O)c1)C(=O)Cn1ccccc1=O
The “% Inhibition” value of the first is lower: -13% for the first, -10% for the second.

Going from `CCNC(=O)c1ccc(C)c(NC(=O)c2ccc(N3CCN(C)CC3)cc2)c1` to `CN1Cc2ccc(CN(C)C(=O)c3ccc(-n4cnnn4)cc3O)cc2C1`, the “% Inhibition” value rises from -3% to 0%.

Compared with `CC(C)(C)OC(=O)N1CCC[C@H](NCc2ncc[nH]2)C1`, `COC1CN(c2ccc(NC(=O)CC3CC3)cc2)C1` is lower in “% Inhibition” value: 2% for the first, -8% for the second.

First: Cc1noc(-c2cccnc2-n2ncc(C(=O)NCc3cccc(Cl)c3)c2C)n1
Second: COCc1nc(NC2CCC(NC(=O)c3ccc(OC)cc3)CC2)c2cnn(-c3ccccc3Cl)c2n1 (stereo not drawn)
The “% Inhibition” value of the first is lower: -13% for the first, 10% for the second.

Going from `Cc1ccc(C(=O)N2CCN(S(=O)(=O)C3CCCCC3)CC2)o1` to `CNC(=O)c1ccc(CN2C[C@@H]3[C@@H]4CC[C@@H](C4)[C@@H]3C2)cc1`, the “% Inhibition” value falls from -11% to -26%.

Compared with `CC(C)NC(=O)c1ccc(N2CCOC(C)(C)C2)nn1`, `Cc1cccc2nc(CN3CC[C@@]4(C3)NC(=O)N(C(C)C)C4=O)cn12` is higher in “% Inhibition” value: -5% for the first, -2% for the second.

Going from `CCC(C)(CC)NC(=O)Cc1cccc(N)c1` to `CCNC(=O)CN(CC)C(=O)COc1ccc(C)c(C)c1`, the “% Inhibition” value falls from 17% to 12%.

Compared with `COc1ccc(C2CC(c3ccc(OC)cc3)n3ncnc3N2C(C)=O)cc1` (stereo not drawn), `COc1ccc(S(=O)(=O)N2C[C@H](C)Oc3cc(F)ccc32)cn1` is higher in “% Inhibition” value: -11% for the first, 27% for the second.

Going from `CN(C)C(=O)N1CCC[C@H]1C(=O)N[C@H]1CC[C@H](NC(=O)c2ccccc2)CC1` to `CC(CC(=O)O)CC(=O)NC(C)c1ccccc1` (stereo not drawn), the “% Inhibition” value rises from -6% to 0%.

First: Cn1c(C2CCCC2)nc2ccccc21
Second: CC[N+](C)(CC)CCOc1cc(C)c2ccccc2n1
The “% Inhibition” value of the first is lower: -5% for the first, 46% for the second.

First: Cn1nnc(CN[C@H]2CCN(c3ccc(Cl)c(F)c3)C2=O)n1
Second: CN(C(=O)c1cc(C2CC2)no1)c1ccc(Br)cc1F
The “% Inhibition” value of the first is lower: -4% for the first, 1% for the second.

Compared with `Cc1c(Cl)ccc2c1N(C(=O)c1ccc(=O)n(C)c1)CCC2`, `CC(C)(C(=O)N1CC[C@@]2(C1)NC(=O)NC2=O)c1ccccc1Cl` is lower in “% Inhibition” value: 8% for the first, -2% for the second.

Going from `Cc1ccc(-c2n[nH]cc2CN2CCn3c(C)nnc3C2)cc1` to `CC(C)(C)c1cnc(CN2CCC(c3nnc4n3CCC4)CC2)o1`, the “% Inhibition” value rises from -10% to 11%.

First: O=C(C[C@H]1CCCS(=O)(=O)C1)N1CCCc2c(F)c(F)cc(F)c21
Second: CCc1nc(-c2c3n(c(=O)n(CC(=O)Nc4cc(C)cc(C)c4)c2=O)CCCC3)no1
The “% Inhibition” value of the first is higher: -3% for the first, -11% for the second.

First: C[C@@H]1CCC[C@H](C)N1Cc1nc(C2CC2)n[nH]1
Second: CC[C@H](C)Cc1nc(C2CCN(CC(N)=O)CC2)n(CC(C)(C)O)n1
The “% Inhibition” value of the first is lower: -9% for the first, 1% for the second.

First: COC(=O)c1cccc(S(=O)(=O)N(C)Cc2cc[nH]n2)c1C
Second: COCC(C)(C)N(C)C(=O)c1cncc(-n2ccnn2)c1
The “% Inhibition” value of the first is higher: -9% for the first, -10% for the second.

Compared with `CC(C)(C)c1cc(C#N)cc(C(C)(C)C)c1O`, `Cc1n[nH]c(C)c1-c1cc(-c2c(C)n[nH]c2C)c(C#N)c(N)n1` is higher in “% Inhibition” value: -13% for the first, -5% for the second.

Compared with `CN(Cc1ccsc1)c1nc(-c2ccncc2)nc2c1CCNCC2`, `CCn1ncc(CN2CC[C@@H]3C(=O)NCCCCCCN(Cc4ccncc4)[C@@H]3C2)c1C` is higher in “% Inhibition” value: -3% for the first, 43% for the second.

Going from `Cc1cc(C)cc(CC(C)NC(=O)C2CCCN2)c1` (stereo not drawn) to `Oc1cccnc1CNC1CC(c2cccc(F)c2)C1` (stereo not drawn), the “% Inhibition” value rises from 9% to 22%.

Compared with `CCCn1ncnc1-c1cccc2c1OCC2`, `Cn1cc(-c2n[nH]c(-c3cnn(C)c3)c2Cl)cn1` is higher in “% Inhibition” value: -10% for the first, -5% for the second.

First: O=C1C[C@@H](c2cccs2)c2scc(-c3cccc(F)c3)c2N1
Second: O=C1N(CCCOc2ccccc2)c2ccccc2NC12CCNCC2
The “% Inhibition” value of the first is higher: -5% for the first, -21% for the second.

Going from `CCCCNC(=O)[C@@]1(C)CC1(Cl)Cl` to `O=C(CCn1cnnn1)N1CC[C@@]2(CCCN(CCc3ccccc3)C2)C1`, the “% Inhibition” value falls from -8% to -9%.

First: Cc1cnc(C(=O)Nc2ccncc2)cn1
Second: Cc1noc(C)c1C(=O)NCc1cncc(-c2ccsc2)c1
The Z score of the first is lower: 1.24 for the first, 1.33 for the second.

Going from `O=C(Cn1cccc1-c1nc(-c2ccc3c(c2)OCO3)no1)Nc1ccc(F)c(F)c1` to `CCOc1nc(-c2cccc(F)c2)n(-c2ccc(NC(=O)Cc3ccccc3)cc2)n1`, the Z score falls from 2.8 to 1.39.

First: COCCN1[C@H](C)CN(CCc2ccc(F)c(F)c2)C[C@@H]1C
Second: CCOc1cc(CCCNC(=O)c2cc[nH]n2)ccc1OC
The Z score of the first is higher: 0.64 for the first, 0.32 for the second.

Compared with `CC1CCCC(NC(=O)C2N(CCN3CCOCC3)C(=O)[C@H]3C(C(=O)Nc4cc(Cl)cc(Cl)c4)[C@H]4C=C[C@@]23O4)C1C` (stereo partly drawn), `COc1ccc(C(=O)N2CCC(F)(C(=O)N3CCOCC3)CC2)cc1` is higher in Z score: 0.02 for the first, 0.89 for the second.

Going from `Cc1ncnc(N2CCC(CNC(=O)c3ccco3)CC2)c1C` to `Cc1ccccc1N1CCC(NCc2cncn2C2CC2)CC1`, the Z score rises from 1.06 to 1.1.

Going from `Oc1cccc(CN(C[C@H](O)C(F)(F)F)[C@H]2CC[C@H](O)CC2)c1` to `CCN(C[C@H](O)c1cccc(O)c1)C(=O)Cn1ccccc1=O`, the Z score falls from 2.42 to 1.89.

Going from `CCNC(=O)c1ccc(C)c(NC(=O)c2ccc(N3CCN(C)CC3)cc2)c1` to `CN1Cc2ccc(CN(C)C(=O)c3ccc(-n4cnnn4)cc3O)cc2C1`, the Z score falls from 0.38 to 0.02.

First: CC(C)(C)OC(=O)N1CCC[C@H](NCc2ncc[nH]2)C1
Second: COC1CN(c2ccc(NC(=O)CC3CC3)cc2)C1
The Z score of the first is lower: -0.3 for the first, 1.27 for the second.

First: Cc1noc(-c2cccnc2-n2ncc(C(=O)NCc3cccc(Cl)c3)c2C)n1
Second: COCc1nc(NC2CCC(NC(=O)c3ccc(OC)cc3)CC2)c2cnn(-c3ccccc3Cl)c2n1 (stereo not drawn)
The Z score of the first is higher: 1.98 for the first, -1.7 for the second.

Going from `Cc1ccc(C(=O)N2CCN(S(=O)(=O)C3CCCCC3)CC2)o1` to `CNC(=O)c1ccc(CN2C[C@@H]3[C@@H]4CC[C@@H](C4)[C@@H]3C2)cc1`, the Z score rises from 2 to 2.43.

First: CC(C)NC(=O)c1ccc(N2CCOC(C)(C)C2)nn1
Second: Cc1cccc2nc(CN3CC[C@@]4(C3)NC(=O)N(C(C)C)C4=O)cn12
The Z score of the first is higher: 0.87 for the first, 0.38 for the second.

Going from `CCC(C)(CC)NC(=O)Cc1cccc(N)c1` to `CCNC(=O)CN(CC)C(=O)COc1ccc(C)c(C)c1`, the Z score rises from -2.01 to -1.43.

Going from `COc1ccc(C2CC(c3ccc(OC)cc3)n3ncnc3N2C(C)=O)cc1` (stereo not drawn) to `COc1ccc(S(=O)(=O)N2C[C@H](C)Oc3cc(F)ccc32)cn1`, the Z score falls from 1.39 to -3.04.

First: CN(C)C(=O)N1CCC[C@H]1C(=O)N[C@H]1CC[C@H](NC(=O)c2ccccc2)CC1
Second: CC(CC(=O)O)CC(=O)NC(C)c1ccccc1 (stereo not drawn)
The Z score of the first is higher: 0.77 for the first, 0.09 for the second.

First: Cn1c(C2CCCC2)nc2ccccc21
Second: CC[N+](C)(CC)CCOc1cc(C)c2ccccc2n1
The Z score of the first is higher: 0.55 for the first, -7.88 for the second.

Compared with `Cn1nnc(CN[C@H]2CCN(c3ccc(Cl)c(F)c3)C2=O)n1`, `CN(C(=O)c1cc(C2CC2)no1)c1ccc(Br)cc1F` is lower in Z score: 0.4 for the first, -0.2 for the second.

Going from `Cc1c(Cl)ccc2c1N(C(=O)c1ccc(=O)n(C)c1)CCC2` to `CC(C)(C(=O)N1CC[C@@]2(C1)NC(=O)NC2=O)c1ccccc1Cl`, the Z score rises from -0.83 to 0.39.

Compared with `Cc1ccc(-c2n[nH]cc2CN2CCn3c(C)nnc3C2)cc1`, `CC(C)(C)c1cnc(CN2CCC(c3nnc4n3CCC4)CC2)o1` is lower in Z score: 1.46 for the first, -1.56 for the second.

Compared with `O=C(C[C@H]1CCCS(=O)(=O)C1)N1CCCc2c(F)c(F)cc(F)c21`, `CCc1nc(-c2c3n(c(=O)n(CC(=O)Nc4cc(C)cc(C)c4)c2=O)CCCC3)no1` is higher in Z score: 0.62 for the first, 1.33 for the second.

First: C[C@@H]1CCC[C@H](C)N1Cc1nc(C2CC2)n[nH]1
Second: CC[C@H](C)Cc1nc(C2CCN(CC(N)=O)CC2)n(CC(C)(C)O)n1
The Z score of the first is higher: 1.06 for the first, -0.14 for the second.

Compared with `COC(=O)c1cccc(S(=O)(=O)N(C)Cc2cc[nH]n2)c1C`, `COCC(C)(C)N(C)C(=O)c1cncc(-n2ccnn2)c1` is higher in Z score: 1.32 for the first, 1.91 for the second.

Going from `CC(C)(C)c1cc(C#N)cc(C(C)(C)C)c1O` to `Cc1n[nH]c(C)c1-c1cc(-c2c(C)n[nH]c2C)c(C#N)c(N)n1`, the Z score falls from 1.71 to 0.72.

Going from `CN(Cc1ccsc1)c1nc(-c2ccncc2)nc2c1CCNCC2` to `CCn1ncc(CN2CC[C@@H]3C(=O)NCCCCCCN(Cc4ccncc4)[C@@H]3C2)c1C`, the Z score falls from 0.62 to -5.64.

First: Cc1cc(C)cc(CC(C)NC(=O)C2CCCN2)c1 (stereo not drawn)
Second: Oc1cccnc1CNC1CC(c2cccc(F)c2)C1 (stereo not drawn)
The Z score of the first is higher: -1.3 for the first, -2.1 for the second.

Going from `CCCn1ncnc1-c1cccc2c1OCC2` to `Cn1cc(-c2n[nH]c(-c3cnn(C)c3)c2Cl)cn1`, the Z score falls from 1.3 to 0.64.

Going from `O=C1C[C@@H](c2cccs2)c2scc(-c3cccc(F)c3)c2N1` to `O=C1N(CCCOc2ccccc2)c2ccccc2NC12CCNCC2`, the Z score rises from 0.99 to 1.96.

First: CCCCNC(=O)[C@@]1(C)CC1(Cl)Cl
Second: O=C(CCn1cnnn1)N1CC[C@@]2(CCCN(CCc3ccccc3)C2)C1
The Z score of the first is lower: 1.31 for the first, 1.58 for the second.
